Each structure is given as a SMILES string. In all, about 150,000 compounds went through this assay and about 540 (0.36%) showed an effect of 50% or more. This is one part of the list.

The assay concerns Plasmodium falciparum. As to the kind of experiment: Primary screen in NF54 nanoGlo assay, in single point, at 2uM, 72h; a lower Z score goes with more inhibition. Particulars: timepoint 72 hour. In kind it is functional, Erythrocyte.
The term % Inhibition denotes the drop in the measured response relative to a control, in per cent. With `Cc1ccc([C@H]2C[C@@H](O)[C@@H](O)[C@@H]2NS(=O)(=O)c2ccccc2)cc1`, the “% Inhibition” value is recorded as -4% and the Z score worked out at 0.63.
In the case of `Cn1cc(C(=O)Nc2ccc(Oc3ccccc3)cc2)nn1`, the “% Inhibition” value was -14% and the Z score is listed as 2.04.
In the case of `O=S(=O)(c1ccc(Cl)s1)N1CCC(N2CCc3sccc3C2)CC1`, the “% Inhibition” value was found to be 45% and the Z score is listed as -7.91.
The matching figures for `Cc1nnc(NC(=O)COc2ccc3c(c2)C(=O)CC3)s1`: 5% and -0.61.
As to `COc1ccc(C2(NC[C@H]3CCC=CO3)CCOCC2)cc1F`, the “% Inhibition” value is recorded as -10% and the Z score stood at 1.87.
The matching figures for `CC(C)COc1ncccc1C(=O)N1CCNCC1`: -10% and 1.32.
Regarding `COc1ccc(Nc2cc(C3CCC3)ncn2)cn1`, the “% Inhibition” value was -17% and the Z score was determined as 1.91.
The matching figures for `COCCN(CCOC)S(=O)(=O)NCc1cccnc1`: -5% and 0.7.
In the case of `O=C(NCc1ccccc1Br)c1cncn1-c1cccc(-c2cccc(OC(F)(F)F)c2)c1`, the “% Inhibition” value is given as -20% and the Z score came to 2.82.
The matching figures for `CCOc1nccnc1N1CC[C@H](NS(=O)(=O)C2CC2)C1`: 5% and -0.59.
Taken in the same sequence, the figures for `COc1ccccc1[C@H]1[C@@H](N)CCCN1C(=O)c1cc(C2CC2)on1` were -3% and 0.52.
Taken in the same sequence, the figures for `O=C(CN1N=C(c2ccccc2F)c2cc(Cl)ccc2S1(=O)=O)Nc1ccccc1` were -21% and 1.95.
On to `CC(C)c1nncn1CCNc1ncc(Cl)cn1`, for which the “% Inhibition” value was -4% and the Z score is given as 0.77.
Taken in the same sequence, the figures for `O=C(Nc1cnccc1-n1cccn1)c1ccccc1OC1CC1` were -9% and 1.59.
Taken in the same sequence, the figures for `O=C(N[C@H]1COCC[C@@H]1O)c1ccc(C(F)(F)F)cc1N1CCCC1` were 16% and -2.
Taken in the same sequence, the figures for `Cc1ccc(CC(=O)NOCc2ccccn2)cc1` were -5% and 0.51.
On to `C[C@@H]1Oc2ccc(NC(=O)Cc3cccc4ccccc34)cc2NC1=O`, for which the “% Inhibition” value was -1% and the Z score worked out at 0.22.
The matching figures for `O=S(=O)(NC[C@@H](CO)CC1CCCC1)C1CC1`: 12% and -1.29.
The matching figures for `COc1ccc(CC(=O)N2C[C@@H](CN3CCOCC3)[C@@H](CO)C2)cc1OC`: -6% and 1.05.
The matching figures for `CCc1ccc(NC(=O)C2CCCCC2C(=O)OCc2ccc(F)cc2)cc1` (stereo not drawn): -9% and 1.21.
For `COc1ccc(OCC(=O)N(C)[C@H](c2ccc(C)cc2)c2c[nH]c3ccccc23)cc1`, the “% Inhibition” value is recorded as -6% and the Z score is reported as 1.
The matching figures for `Cn1ccnc1-c1cn(C[C@@H](CO)Cc2ccsc2)nn1`: -8% and 1.47.
Taken in the same sequence, the figures for `O=C(c1cc2c(s1)CCCC2)N1CCc2ccccc21` were -13% and 2.23.
The matching figures for `CO[C@H]1CCN(CCCC(=O)c2ccc(F)cc2)C1`: -14% and 1.79.
As to `O=C(Cc1ccc2c(c1)OCC2)Nc1ccc2c(c1)C(=O)N1CCC[C@H]1C(O)=N2`, the “% Inhibition” value is given as 2% and the Z score is -0.28.
The matching figures for `Cc1nn(C)c2cc(NC(=O)N3CCO[C@H](C4CC4)C3)ccc12`: -7% and 1.15.
The matching figures for `FC(F)(F)[C@]1(c2nc(-c3ccccc3)no2)CCNC1`: 23% and -3.05.
Taken in the same sequence, the figures for `CCc1nc([C@@H]2CCCN2CCC(=O)N2CCOCC2)no1` were -8% and 0.85.
Regarding `COc1ccc(CN2CCC[C@H](CNC(=O)c3cccs3)C2)c(F)c1`, the “% Inhibition” value was found to be 2% and the Z score is recorded as -0.24.
The matching figures for `COc1ccccc1CNC(=O)C(=O)N1CCN(C(c2ccccc2)c2ccccc2)CC1`: -3% and 0.53.
The matching figures for `COCC(C)(C)NC(=O)c1coc(COc2ccc3ncccc3c2)n1`: 0% and 0.03.
Taken in the same sequence, the figures for `CC1CN(C(=O)c2ccc3[nH]cnc3c2)C(C)CO1` (stereo not drawn) were -13% and 1.6.
In the case of `CCOC(=O)c1nn(Cc2ccc(OC)cc2)c2c1CN(C(=O)[C@H]1CCOC1)CC2`, the “% Inhibition” value was -8% and the Z score was 1.04.
Taken in the same sequence, the figures for `Cc1ncccc1C(=O)NCCc1csc(N2CCCC2)n1` were -2% and 0.34.
With `Cc1cc(C(=O)N(Cc2ccsc2)CC(C)C)[nH]n1`, the “% Inhibition” value is -13% and the Z score came out at 1.96.
Taken in the same sequence, the figures for `C[C@H](On1nnc2ccc(Cl)cc21)C(=O)NC(=O)NC1CCCCC1` were -4% and 0.73.
On to `C=C(C)C(=O)Nc1cccc(C(C)=O)c1`, for which the “% Inhibition” value was -4% and the Z score is reported as 0.57.
As to `Cc1cc(C(C)NC(=O)C(C)(O)CN2C(=O)NC(C)(C)C2=O)c(C)s1` (stereo not drawn), the “% Inhibition” value is -6% and the Z score amounted to 0.97.
The matching figures for `O=C(NCCc1ccncc1)c1cc(Cl)c[nH]1`: -4% and 0.75.
The matching figures for `C[C@@H](Cc1ccc2c(c1)CCO2)NC(=O)Nc1cccs1`: 3% and -0.48.
The matching figures for `Cc1ccc(F)cc1NC(=O)Cn1c(C)nc2c(c1=O)CN(Cc1ccccc1)CC2`: -12% and 1.6.
As to `COc1ccccc1NC(=O)[C@@H]1CC(C)(C)OC1=O`, the “% Inhibition” value was -14% and the Z score is recorded as 1.63.
`NCC(F)(F)CNC(=O)N1CC[C@H](n2ncc3ccccc32)C1`: the “% Inhibition” value is -16% and the Z score is 2.95.
The matching figures for `Cc1nn(CC(N)=O)c(C)c1-c1ccc(C(=O)NC[C@H]2CCCO2)cc1`: 2% and -0.35.
Taken in the same sequence, the figures for `CC(=O)c1c(C)[nH]c(C(=O)C(C)N2CCCC2c2ccc3c(c2)OCCCO3)c1C` (stereo not drawn) were -6% and 1.
For the compound `O=C(Nc1ccc2c(c1)OCCO2)c1cncc(Br)c1`, the “% Inhibition” value is -27% and the Z score is listed as 3.65.
The matching figures for `Cn1cc(Cl)c(C(=O)NCc2cncn2C2CC2)n1`: -6% and 1.27.
The matching figures for `CC1C(C)N(Cc2ccccc2)C(C)CN1c1nc2c(cnn2C)c(=O)[nH]1` (stereo not drawn): 16% and -1.92.
Taken in the same sequence, the figures for `Cc1cc(-n2c(C)cc(C(=O)Cn3c(C(F)(F)F)ccc(C(N)=O)c3=O)c2C)no1` were 38% and -4.59.
Take `CCCN(Cc1cc(-c2ccccc2)on1)C(C)=O`: the “% Inhibition” value is -5% and the Z score amounted to 0.62.
Taken in the same sequence, the figures for `O=C(CCS(=O)(=O)c1ccc(Cl)cc1)Nc1ccc(N2CCOCC2)cc1` were -13% and 1.6.
The matching figures for `Cc1ccsc1CN(CC(C)C)C(=O)c1cc2ncc(CCO)cn2n1`: -7% and 0.72.
The matching figures for `Cc1cc(CNC(=O)NCC2(c3ccccc3)CC2)no1`: -4% and 0.57.
As for `O[C@@H](CN1CCN(c2nccs2)CC1)C1CCCCC1`, the “% Inhibition” value is -2% and the Z score came out at 0.31.
The matching figures for `NS(=O)(=O)c1ccc(-n2nc(-c3ccccn3)nc2C2CCC2)cc1`: -7% and 0.8.
Taken in the same sequence, the figures for `CO[C@@H]1COC[C@H]1n1cc(CNC2CC(C)c3c(C)cccc32)nn1` (stereo partly drawn) were -11% and 1.49.
In the case of `Cn1ccnc1C1(O)CN(S(=O)(=O)c2ccccc2F)C1`, the “% Inhibition” value was -8% and the Z score stood at 1.59.
In the case of `O=S(=O)(c1ccc2ccccc2c1)n1ccnc1`, the “% Inhibition” value is reported as -34% and the Z score was determined as 3.97.
Taken in the same sequence, the figures for `CCCN1C(=O)c2cc3oc(C)cc3n2C[C@@]1(C)C(=O)NC1CCCCC1` were 11% and -2.09.
Taken in the same sequence, the figures for `Cc1cc(F)cc2c1N(CC(=O)NC1CCOCC1)CCC2` were -6% and 1.19.
For the compound `CCCN(C(=O)NCC1CCCO1)C1C2CCOC2C1(C)C` (stereo not drawn), the “% Inhibition” value came to 11% and the Z score is -1.27.
In the case of `CCC[C@H](C)c1nc(N2CCN(C(=O)Cc3ccc(OC)cc3)CC2)c2cnn(-c3ccccc3)c2n1`, the “% Inhibition” value is on record as 46% and the Z score is listed as -6.22.
The matching figures for `CC(=O)N[C@H]1C[C@@H](c2cccc(Cn3cccn3)c2)O[C@@H](c2ccccc2)C1`: 4% and -0.87.
Taken in the same sequence, the figures for `O=C1[C@H](c2ccccc2)CC2(CCN(Cc3ncc[nH]3)CC2)CN1C1CC1` were 3% and -0.61.
As for `COC[C@@H](c1ccccn1)N(C)C(=O)CCC(=O)Nc1nncs1`, the “% Inhibition” value was -11% and the Z score is on record as 1.38.
Taken in the same sequence, the figures for `Cc1c(Cl)ccc2c(C(=O)N3CCC(C)CC3)cc(-c3ccc4c(c3)OCO4)nc12` were -10% and 1.36.
Taken in the same sequence, the figures for `Cc1ccc(CC(=O)Nc2cc(C(F)(F)F)n(C)n2)cn1` were -6% and 0.61.
The matching figures for `CC(C)N1C(=O)CN(C(=O)c2cc3cccn3cn2)CC1(C)C`: 1% and -0.12.
Consider `CC1(C)CCC[C@@H]1NC(=O)NCCc1cnn(-c2ccccc2)c1`, for which the “% Inhibition” value is reported as -10% and the Z score was 1.35.
As for `CC(C)C(NC(=O)COc1ccccc1)C(=O)NCC(c1ccccc1Cl)c1c[nH]c2ccccc12` (stereo not drawn), the “% Inhibition” value amounted to 39% and the Z score is recorded as -3.28.
In the case of `CO[C@H]1CN(c2cccc(F)c2)C12CCN(C(=O)Cc1ccccc1)CC2`, the “% Inhibition” value was -3% and the Z score was 0.34.
Taken in the same sequence, the figures for `C[C@@H](c1ccccc1)n1cnc2c1c(=O)n(C1CCCCC1)c(=O)n2-c1ccccc1Cl` were -10% and 0.9.
The matching figures for `CN(CC1(CO)CCOCC1)C(=O)Nc1cc(F)cc(Cl)c1`: -8% and 0.75.
Taken in the same sequence, the figures for `Fc1cccc2ncnc(N3CCN(C4CC4)CC3)c12` were -2% and 0.3.
In the case of `CCn1c(=O)sc2cc(S(=O)(=O)N3CCC(C(=O)Nc4ccccc4F)CC3)ccc21`, the “% Inhibition” value is 7% and the Z score is on record as -0.88.
Taken in the same sequence, the figures for `O=C(O)[C@@]1(Cc2ccc(F)cc2F)CCCN(c2cnccn2)C1` were 0% and 0.06.
The matching figures for `Cn1nccc1C1(O)CCN(c2ncncc2Cl)CC1`: 3% and -0.37.
Taken in the same sequence, the figures for `OCCN1CCN(C2CCN(Cc3cnc(NCc4ccccc4)nc3)CC2)CC1` were 4% and -0.54.
For `CCC(=O)NCc1csc(C2CCN(C(=O)c3cccs3)CC2)n1`, the “% Inhibition” value was -16% and the Z score is reported as 2.1.
Taken in the same sequence, the figures for `CC(C)(C(=O)NCCS(N)(=O)=O)c1ccc(Cl)cc1F` were -8% and 0.83.
Taken in the same sequence, the figures for `O=C(NCc1ccnc(N2CCCC2=O)c1)c1nc(-c2cccs2)cs1` were -3% and 0.39.
Taken in the same sequence, the figures for `CC(C)OCC(=O)Nc1ncc2[nH]ccc2c1Br` were -12% and 2.02.
`COc1ccc2c(c1)CCN=C2C[C@H]1CN(C(=O)Cc2ccccc2)CC[C@H]1CC(=O)O`: the “% Inhibition” value was found to be 20% and the Z score is given as -2.32.
The matching figures for `Cc1ccc(CN2C[C@]34C=C[C@H](O3)C(C(=O)N(C)C(C)C)C4C2=O)cc1C` (stereo partly drawn): 6% and -0.78.

These data come from ChEMBL document CHEMBL4888484, “Replenishing the malaria drug discovery pipeline: Screening and hit evaluation of the MMV Hit Generation Library 1 (HGL1) against asexual blood stage Plasmodium falciparum ,using a nano luciferase reporter read-out” (2022).
